# Results as given in PubChem BioAssay AID1030 (National Center for Advancing Translational Sciences (NCATS), 2008).
# Values joined by “and” are separate entries in the source; they are usually repeats but may differ in a detail not shown here. Equal values may be shown once. Hit rate of the full screen: of about 220,000 compounds, about 16,000 (7.3%) were called active. The shares of active, inactive and inconclusive entries below differ from those in the screen. Calls follow the shape of the dose curve; as a rule, active = well fitted inhibition curve with a large enough effect (not every such curve was filed as active); inconclusive = small, poorly fitted or top-dose-only effect, or another doubt; inactive = no such curve, though single readings can be large or run the other way. Potencies of inconclusive entries are doubtful fits and often do not repeat.
# Molecular target: Aldehyde dehydrogenase 1A1 (Homo sapiens) (UniProt P00352)
# Assay: qHTS Assay for Inhibitors of Aldehyde Dehydrogenase 1 (ALDH1A1);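 as to activity, negative = inhibition: plate controls were no enzyme wells and a reference inhibitor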
# Conditions: Purified ALDH1A1, NADH fluorescence, propionaldehyde substrate; series mostly up to 75.3 µM
# Potency is read from the fitted curve at half-maximal effect; tags tell the direction and shape of the fitted curve.
# Chain of UniProt P00352 (P00352 whole entry, looked up): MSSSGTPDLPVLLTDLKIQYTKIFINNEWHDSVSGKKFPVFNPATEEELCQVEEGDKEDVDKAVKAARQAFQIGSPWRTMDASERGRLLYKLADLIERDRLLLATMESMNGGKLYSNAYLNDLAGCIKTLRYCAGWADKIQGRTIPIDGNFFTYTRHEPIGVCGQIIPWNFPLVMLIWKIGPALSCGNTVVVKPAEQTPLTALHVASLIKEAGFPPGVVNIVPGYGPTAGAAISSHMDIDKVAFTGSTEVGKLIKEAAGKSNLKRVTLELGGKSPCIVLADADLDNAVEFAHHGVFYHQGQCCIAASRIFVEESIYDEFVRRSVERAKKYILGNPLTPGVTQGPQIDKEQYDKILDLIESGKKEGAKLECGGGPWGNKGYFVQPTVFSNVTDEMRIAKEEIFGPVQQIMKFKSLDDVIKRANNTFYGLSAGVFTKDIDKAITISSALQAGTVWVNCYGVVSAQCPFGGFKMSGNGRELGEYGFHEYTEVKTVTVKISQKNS
SMILES,Potency,"activity, negative = inhibition"
CN(CCc1ccc(Cl)c(Cl)c1)[C@@H]1CCCC[C@@H]1N1CCCC1,active: 3.55 µM,–
CCCS(=O)(=O)N1CCC(C(=O)N2CCC3(CC2)OCCO3)CC1,"inconclusive: 39.8 µM [inhibitor, single point]",–
CN(C)c1ccc(C=C2C(=O)NC(=S)NC2=O)cc1[N+](=O)[O-],active: 11.2 µM,–
COc1cccc(/C=C2\N=C(c3cncc(Br)c3)OC2=O)c1,"inconclusive: 35.5 µM [inhibitor, single point]",–
CN1C(=O)C(=Cc2ccccc2Oc2ccc(Cl)cc2)C(=O)N(C)C1=O,"inconclusive: 31.6 µM [inhibitor, partial curve, poor fit]",–
COc1ccc(Cn2c(O)c(/C=N/NC(=O)c3ccccc3O)c(=O)[nH]c2=O)cc1,"inconclusive: 22.4 µM [inhibitor, partial curve]",–
COc1ccc2c(c1)c(C(=O)CN1CCN(C)CC1)c(C)n2Cc1ccccc1,"inconclusive: 39.8 µM [inhibitor, single point]",–
c1ccc(N=Nc2ccccc2)cc1,"inconclusive: 39.8 µM [inhibitor, single point]",–
COCCCn1c(N)c(C(=O)OC(C)COC)c2nc3ccccc3nc21 (stereo not drawn),"inconclusive: 28.2 µM [inhibitor, partial curve]",–
CC(=NCc1ccco1)c1c(O)n(C2CCCCC2)c(=O)[nH]c1=O,"inconclusive: 28.2 µM [inhibitor, single point]",–
NP(=O)(OCC(F)(F)F)Oc1ccc(Cl)cc1 (stereo not drawn),inactive,–
CCSP1(=S)N=C(N2CCOCC2)C(C#N)=C2CCCN21 (stereo not drawn),"inconclusive: 39.8 µM [inhibitor, single point]",–
COc1ccc(CCn2c(O)c(C=NCCCn3ccnc3)c(=O)[nH]c2=O)cc1OC,inactive,–
Cc1ccc(S(=O)(=O)n2[nH]c(=O)cc2NC(=O)c2cccs2)cc1,"inconclusive: 39.8 µM [inhibitor, single point]",–
COc1ccc(OC)c(C2C(C#N)=C(N)Oc3c2c(C)nn3-c2ccc(C)cc2)c1 (stereo not drawn),"inconclusive: 20 µM [inhibitor, partial curve]",–
CSc1ncc(/C=C2/C(=O)NC(=O)N(c3ccc(C(C)C)cc3)C2=O)cn1,active: 14.1 µM,–
CCOC(=O)c1ccc(NC(c2ccc(N(C)C)cc2)P(=O)(OC(C)C)OC(C)C)cc1 (stereo not drawn),"inconclusive: 39.8 µM [inhibitor, single point]",–
Nc1nc2[nH]c(=O)cnc2c(=O)[nH]1,"inconclusive: 3.98 µM [inhibitor, full curve]",–
COc1cccc(NC(=O)CN2CC(c3ccccc3)CC2=O)c1 (stereo not drawn),inactive,–
Cc1ccccc1-n1c(O)c(/C=N/Nc2nc3c(c(=O)n(C)c(=O)n3C)n2C)c(=O)[nH]c1=S,active: 12.6 µM,–
CC1Cc2ccccc2N1NC(=O)c1ccc(Cl)c(S(N)(=O)=O)c1 (stereo not drawn),"inconclusive: 39.8 µM [inhibitor, single point] and inconclusive: 25.1 µM [inhibitor, single point]",–
CCNCC,inactive,–
CCC(=NCc1ccco1)c1c(O)n(-c2ccc(OC)cc2)c(=O)[nH]c1=O,"inconclusive: 39.8 µM [inhibitor, single point]",–

SMILES,Potency,"activity, negative = inhibition"
Cc1cc(Cl)ccc1N=Cc1c(O)n(C)c(=O)n(C)c1=O,"inconclusive: 39.8 µM [inhibitor, single point]",–
O=C(O)CCC(=O)N1N=C(c2c(-c3ccccc3)c3cc(Cl)ccc3[nH]c2=O)CC1c1ccco1 (stereo not drawn),"inconclusive: 31.6 µM [inhibitor, single point]",–
NC(=O)COc1c(F)cc(SCCNS(=O)(=O)c2ccccc2)cc1F,"inconclusive: 22.4 µM [inhibitor, partial curve]",–
CCC1CCCCN1P(=O)(c1ccc(C)o1)C(C)(C)C (stereo not drawn),"inconclusive: 12.6 µM [inhibitor, partial curve]",–
Cc1ccc(-c2cc(-c3ccc(C)cc3)[n+](C)o2)cc1,"inconclusive: 39.8 µM [inhibitor, single point]",–
CCCCCC1CC(CC(=O)NC(=S)Nc2ccc([N+](=O)[O-])cc2)C(=O)O1 (stereo not drawn),active: 10 µM,–
Cn1cccc1CN1CCN(C(=O)COc2ccccc2)CC1,inactive,–
CC(C(=O)c1ccccc1)N1C(=O)c2ccccc2C1=O (stereo not drawn),inactive,–
O=C1NC(=O)N(c2ccccc2F)C(=O)/C1=C/c1ccc(Sc2nc3ccccc3[nH]2)o1,active: 10 µM,–
CC1CCN(CC(=O)c2ccc3c(c2)OCCO3)CC1,active: 7.94 µM,–
Cc1ccc(-n2c(O)c(/C=N/N3CCCCC3c3cccnc3)c(=O)[nH]c2=S)cc1 (stereo not drawn),"inconclusive: 39.8 µM [inhibitor, single point]",–
Cc1cc(C)cc(N2C(=O)NC(=O)/C(=C\c3cc(C)n(C)c3C)C2=O)c1,inactive,–
COC(=O)[C@@H]1C[C@@]2(O)[C@@H](O)[C@@H](O)[C@@H](O)C[C@H]2N1Cc1cccnc1,inactive,–
CC1(C)Cc2c(sc3c2C(=O)NC(c2cccnc2)N3)CO1 (stereo not drawn),"inconclusive: 35.5 µM [inhibitor, single point]",–
CC(C)(O)/C=C\C(=O)[C@](C)(O)[C@H]1[C@H](O)C[C@]2(C)[C@@H]3CC=C4[C@@H](C=C(O)C(=O)C4(C)C)[C@]3(C)C(=O)C[C@@]12C,–,inactive: 8.67% [at 13.5 µM]
Brc1cccc(-c2ccccc2)c1,inactive,–
CN(C)c1ccc(P(=S)(N(C)C)N(C)C)cc1,"inconclusive: 39.8 µM [inhibitor, single point]",–
CC1CCCC(C)N1c1nnc(NC(=O)Cn2c(=O)oc3ccccc32)s1 (stereo not drawn),"inconclusive: 12.6 µM [inhibitor, partial curve]",–
O=C(Cc1ccccc1)N1CCN(CC2CC=CCC2)CC1 (stereo not drawn),active: 12.6 µM,–
CC1=NN(c2ccccc2)C(=O)C1=C(C)C,"inconclusive: 35.5 µM [inhibitor, single point]",–
C[C@H](Cc1ccc2c(c1)OC(C(=O)O)(C(=O)O)O2)NC[C@H](O)c1cccc(Cl)c1,inactive,–
CCC(C)N1C(=O)/C(=C/c2ccc3c(c2)CCN3CCCCl)C(=O)NC1=S (stereo not drawn),active: 0.224 µM,–
Cc1ccc(N2C(=O)NC(=O)/C(=C/c3ccc(OC(=O)c4cccs4)cc3)C2=O)cc1,"inconclusive: 39.8 µM [inhibitor, single point]",–

SMILES,Potency,"activity, negative = inhibition"
COC(=O)C[C@]1(C(=O)OC)CN(C#N)N(c2ccc(Cl)cc2)C12c1ccccc1-c1ccccc12,inactive,–
c1cc2cc(c1)C[n+]1ccc(c3ccccc31)NCc1ccc(cc1)CNc1cc[n+](c3ccccc13)C2,"inconclusive: 39.8 µM [inhibitor, single point]",–
S=C(c1ccc(Cl)cc1)N1CCOCC1,"inconclusive: 35.5 µM [inhibitor, single point]",–
O=C(N/N=C\C1C(=O)NC(=S)N(c2ccccc2)C1=O)c1ccc(O)cc1 (stereo not drawn),active: 10 µM,–
Cc1ccc(C(=O)N[C@@H](C)CN2C3=NC[C@@H](Cc4ccccc4)N3C[C@H]2Cc2ccc(O)cc2)cc1Br,"inconclusive: 37.7 µM [inhibitor, single point]",–
Cc1ccc(OCC(=O)N2CCN(Cc3ccc4c(c3)OCO4)CC2)cc1,active: 25.1 µM,–
O=c1ccc2cc(O[C@H]3OC(CO)C(O)C(O)C3O)c(O)cc2o1 (stereo partly drawn),"inconclusive: 31.6 µM [inhibitor, partial curve] and inconclusive: 794 nM [inhibitor, partial curve]",–
Nc1cccc(Cl)c1,"inconclusive: 39.8 µM [inhibitor, single point]",–
O=[N+]([O-])c1cc(Cl)c(Cl)c(Cl)c1,"inconclusive: 39.8 µM [inhibitor, single point]",–
NCCSC(c1ccccc1)c1ccccc1,–,inactive: -11.9% [at 13.5 µM]
CN1CCN(c2ccc3nc(-c4ccc5nc(-c6ccc(O)cc6)[nH]c5c4)[nH]c3c2)CC1,"inconclusive: 7.08 µM [inhibitor, single point]",–
CCOC(=O)c1sc(/N=C/c2c(O)n(-c3cccc(C)c3)c(=O)[nH]c2=O)c(C#N)c1C,"inconclusive: 39.8 µM [inhibitor, single point]",–
CC[C@@](O)(C(=O)O)c1cc2n(c(=O)c1CO)Cc1cc3ccccc3nc1-2,"inconclusive: 3.16 µM [inhibitor, partial curve]",–
Cc1nn(Cc2ccccc2)c2c1C(c1ccco1)C(C#N)=C(N)O2 (stereo not drawn),active: 28.2 µM,–
COC(=O)C(c1ccccc1)N1CCCCCC1 (stereo not drawn),"inconclusive: 12.6 µM [inhibitor, partial curve]",–
O=C(N/N=C/c1c(O)n(CCc2ccccc2)c(=O)[nH]c1=O)c1ccccc1,"inconclusive: 39.8 µM [inhibitor, single point]",–
C=C(C)[C@H]1Cc2c(ccc3c2O[C@@H]2COc4cc(OC)c(OC)cc4[C@@H]2C3=O)O1,inactive,–
CN1CCC(O)(c2ccccc2)C(C(=O)c2ccccc2)C1 (stereo not drawn),active: 0.141 µM,–
COP(=O)(OC)c1nc(-c2cccc3ccccc23)oc1N1CCCCC1,"inconclusive: 31.6 µM [inhibitor, partial curve]",–
CS(=O)(=O)NNP(=O)(NNS(C)(=O)=O)NC(=O)c1ccccc1,inactive,–
CCOC(=O)c1c(NS(=O)(=O)c2ccccc2)n(CCCOC)c2nc3ccccc3nc12,"inconclusive: 28.2 µM [inhibitor, partial curve]",–
O=C(c1cc(=O)[nH]c2ccc(Br)cc12)N1CCC2(CC1)OCCO2,"inconclusive: 25.1 µM [inhibitor, partial curve]",–
